The record followed here is publication PMC4336329 (PLoS ONE, 2015).

The campaign covered roughly 310,000 compounds. About 2,200 (0.71%) showed an effect of 50% or more. The effect is printed as a negative number. This is one part of the list.

In the experiment the target is human ether-à-go-go-related gene (hERG) potassium channel (human, UniProt Q12809). The experiment is described as follows: primary screen, population patch clamp on CHO cells stably expressing hERG.
human ether-à-go-go-related gene (hERG) potassium channel, sequence (Q12809 whole entry, looked up): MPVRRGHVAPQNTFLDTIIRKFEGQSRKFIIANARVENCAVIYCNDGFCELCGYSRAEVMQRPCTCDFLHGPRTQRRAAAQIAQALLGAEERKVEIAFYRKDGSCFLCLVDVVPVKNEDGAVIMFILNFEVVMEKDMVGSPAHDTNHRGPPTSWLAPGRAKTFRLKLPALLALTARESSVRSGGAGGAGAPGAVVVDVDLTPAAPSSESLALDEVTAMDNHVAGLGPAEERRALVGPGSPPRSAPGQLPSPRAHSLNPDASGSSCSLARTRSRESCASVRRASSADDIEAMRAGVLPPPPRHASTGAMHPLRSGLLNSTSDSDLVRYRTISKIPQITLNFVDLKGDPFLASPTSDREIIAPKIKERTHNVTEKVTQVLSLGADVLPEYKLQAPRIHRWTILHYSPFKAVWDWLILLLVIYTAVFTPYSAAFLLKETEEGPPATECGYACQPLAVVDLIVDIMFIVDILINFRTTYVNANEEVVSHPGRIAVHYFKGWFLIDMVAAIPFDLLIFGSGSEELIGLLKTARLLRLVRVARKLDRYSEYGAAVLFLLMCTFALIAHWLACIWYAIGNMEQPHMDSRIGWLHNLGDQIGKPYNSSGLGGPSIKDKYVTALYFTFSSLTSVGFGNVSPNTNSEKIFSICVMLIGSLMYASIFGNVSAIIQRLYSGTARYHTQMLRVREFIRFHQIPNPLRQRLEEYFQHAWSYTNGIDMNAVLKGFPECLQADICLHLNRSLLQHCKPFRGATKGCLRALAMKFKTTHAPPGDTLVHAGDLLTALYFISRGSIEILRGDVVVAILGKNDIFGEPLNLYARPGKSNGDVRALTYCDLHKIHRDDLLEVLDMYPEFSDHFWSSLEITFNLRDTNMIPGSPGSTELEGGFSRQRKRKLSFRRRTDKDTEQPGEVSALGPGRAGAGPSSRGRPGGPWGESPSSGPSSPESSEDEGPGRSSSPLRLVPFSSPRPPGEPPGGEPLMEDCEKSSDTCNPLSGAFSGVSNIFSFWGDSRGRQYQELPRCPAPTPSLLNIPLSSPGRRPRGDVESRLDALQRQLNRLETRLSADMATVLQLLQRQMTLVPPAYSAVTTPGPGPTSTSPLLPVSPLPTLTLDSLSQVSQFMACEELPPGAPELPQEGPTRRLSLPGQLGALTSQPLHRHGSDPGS
In the case of `NS(=O)(=O)c1ccc(CCNC(=O)CNS(=O)(=O)c2cccc(Br)c2)cc1`, the “hERG current change (%, negative = inhibition) at 1uM” value is recorded as 18.5%. `CCOc1ccc(N(CC(=O)NC2CCCCC2)C(=O)CCC(=O)Nc2ccccn2)cc1`: the “hERG current change (%, negative = inhibition) at 1uM” value is reported as -14.6%. For `Cc1cc(N2CCCCC2)nc(N2CCOCC2)n1` the value was -2.4%. Under `COC(=O)[C@H](CC(C)C)NCc1cccc(CN[C@@H](CC(C)C)C(=O)OC)c1` stands 5.69%. Under `COc1ccc(Br)cc1CN1CCN(Cc2c[nH]c3ccccc23)CC1.O=C(O)C(=O)O` stands 4.08%; under `COc1ccccc1OCCC(=O)OCC(=O)Nc1ccc(Br)cc1`, 3.89%. On to `COc1ccc(CCNC(=O)CCCCCNc2nc(=S)[nH]c3ccccc23)cc1OC`, for which the “hERG current change (%, negative = inhibition) at 1uM” value is reported as 4.57%. For `Nc1nc2ccc(C(=O)Nc3ccccc3)cc2s1` the value was 16%; for `Cc1cccc(OCc2nnc(SCC(=O)O)n2-c2ccccc2)c1`, 13%; for `CCC(=O)N1c2ccccc2NC2=C(C(=O)CCC2)C1c1cccnc1` (stereo not shown), 12.9%. Under `CC(=O)O[C@]1(C(C)=O)CCC2C3CCC4=C/C(=N/OCC(=O)O)CC[C@]4(C)C3CC[C@@]21C` (stereo partly shown) stands 12.2%; under `CC(Oc1ccc(Cl)cc1)C(=O)N(C)CC(=O)Nc1ccc(N2CCOCC2)cc1` (stereo not shown), 15.4%; under `COc1ccccc1-n1cnnc1SCC(=O)NCC1CCCO1` (stereo not shown), 15.1%. Under `O=C1CSC(=Nc2ccc(O)cc2)N1` stands 14.8%.

On to `CCCSc1nnc(Cn2c(=O)sc3ccccc32)n1C`, for which the “hERG current change (%, negative = inhibition) at 1uM” value is 1.21%. As for `CCCN1CCC(NC(=O)Nc2ccccc2C(=O)OC)CC1`, the “hERG current change (%, negative = inhibition) at 1uM” value is on record as -2.51%.

On to `CCc1cc(=O)oc2cc(C)c(CN3CCCCC3)c(O)c12`, for which the “hERG current change (%, negative = inhibition) at 1uM” value is recorded as 6.09%.

With `Cc1cccc2c1-c1sc(C(=O)NCCCN3CCC(C)CC3)cc1CO2`, the “hERG current change (%, negative = inhibition) at 1uM” value is recorded as -5.27%. Under `O=C(CC(SCCO)c1ccc(F)cc1)c1ccco1` (stereo not shown) stands 10.1%.

As to `CC12CCC3C(CCC4C/C(=N/O)CCC43C)C1CCC2O` (stereo not shown), the “hERG current change (%, negative = inhibition) at 1uM” value is -4.25%. Under `COc1c(C)cc(Br)cc1C(=O)NCc1cccnc1` stands -2.49%; under `Cc1ccc(NC(=O)N2CCC(NC(=O)c3cccc(C)c3)CC2)cc1`, 1.63%; under `COc1ccccc1C(=O)NC(=S)Nc1cccc2cc(O)ccc12`, 16.6%. For `CC(=O)Cc1nsc(NC(=O)c2ccc(COc3ccccc3)o2)n1` the value was -0.614%.

Take `O=C(CCn1c(=O)c2ccccc2n(CC(=O)NCCC2=CCCCC2)c1=O)NCc1ccco1`: the “hERG current change (%, negative = inhibition) at 1uM” value turned out to be 9.69%.

Consider `CN(C)S(=O)(=O)c1cccc(N=c2scc(-c3ccc4c(c3)NC(=O)CO4)n2CC2CCCO2)c1` (stereo not shown), for which the “hERG current change (%, negative = inhibition) at 1uM” value is given as -5.6%. As to `O=C(c1cnc2ccc3ccccc3c2c1)c1cc(F)ccc1O`, the “hERG current change (%, negative = inhibition) at 1uM” value turned out to be 14.8%.

As to `O=C(NCCCn1ccnc1)c1ccc(NS(=O)(=O)c2cccc([N+](=O)[O-])c2)cc1`, the “hERG current change (%, negative = inhibition) at 1uM” value came out at 6.9%. With `CC(C(=O)NC(=O)NC1CCCCC1)N1CCN(c2ccc(O)cc2)CC1` (stereo not shown), the “hERG current change (%, negative = inhibition) at 1uM” value was -7.14%. Under `O=C(COC(=O)c1ccc2ccccc2n1)Nc1ncc(C(F)(F)F)cc1Cl` stands 7.36%. In the case of `Cc1cc(C)c2c(N=NN3CCCCC3)[nH]nc2n1`, the “hERG current change (%, negative = inhibition) at 1uM” value is 11.2%. For `Cc1nnc(NC(=O)CSc2nc3c(c(=O)n2C)SC(C)C3)s1` (stereo not shown) the value was 12.3%. For `COc1ccc(C)cc1NC(=O)NCc1ccccn1` the value was 9.05%; for `CCc1ccccc1NS(=O)(=O)c1ccc(SC)cc1`, 17.6%.

Regarding `CCOc1ccc(CCNC(=O)COC(=O)C2CCN(S(=O)(=O)c3ccc(C)c(C)c3)CC2)cc1OCC`, the “hERG current change (%, negative = inhibition) at 1uM” value was 10.6%. For `Cc1cc(NC(=O)Cn2c(C)nc3ccccc3c2=O)ccc1Br` the value was 4.29%; for `CCC(=O)Nc1ccc2c(c1)nc(CCNC(=O)c1ccco1)n2C`, 14.7%.

Take `O=C(NCCc1ccc(C(F)(F)F)cc1)C1CCC(=O)N(C2CC2)C1` (stereo not shown): the “hERG current change (%, negative = inhibition) at 1uM” value was -13%. Under `O=C(O)CCC(=O)N1N=C(c2cccs2)CC1c1cccc([N+](=O)[O-])c1` (stereo not shown) stands 17.8%; under `CCC(=O)Nc1nc2ccc(NC(C)=O)cc2s1`, 13.8%; under `COc1ccc(NC(=O)C2CCC(C(C)(C)C)CC2)cc1S(=O)(=O)N1CCOCC1` (stereo not shown), 7.23%. With `CCCn1c(SCC(=O)NC23CC4CC(CC(C4)C2)C3)n[nH]c1=O`, the “hERG current change (%, negative = inhibition) at 1uM” value was 7.11%. Under `O=C(CCC(=O)N/N=C/c1ccc(Br)s1)NCc1ccccc1` stands 9.94%; under `O=C1CC(c2cc([N+](=O)[O-])ccc2Cl)c2c(ccc3ccccc23)N1` (stereo not shown), -32.9%; under `Cc1cc(NC(=O)c2cccc(F)c2)no1`, 1.59%. Under `O=C(O)C1CCCN(S(=O)(=O)c2cccc3cccnc23)C1` (stereo not shown) stands 11%. Under `Cc1ccc(C)c(C(=O)CSc2n[nH]c(C(C)C)n2)c1` stands 9.89%; under `CC(=O)C1=C(O)C(=O)N(c2ccccn2)C1c1cccc(F)c1` (stereo not shown), 8.1%; under `Cc1cnc(NC(=O)COc2cccc3c2OC(C)(C)C3)s1`, 13.4%. For the compound `O=C(N/N=C/c1ccccc1Cl)c1[nH]c2ccc(Br)cc2c1-c1ccccc1`, the “hERG current change (%, negative = inhibition) at 1uM” value was found to be 12.1%. As for `COc1cc(C(=O)NCc2nnc(SCC(=O)NCc3ccco3)o2)cc(OC)c1OC`, the “hERG current change (%, negative = inhibition) at 1uM” value came to 15.9%. As to `Cc1cc(Br)ccc1OCC(=O)N1CCCCCC1`, the “hERG current change (%, negative = inhibition) at 1uM” value is 6.68%. With `CC(=O)c1c(N2CCOCC2)nc(=S)n(-c2cc(C)ccc2C)c1C`, the “hERG current change (%, negative = inhibition) at 1uM” value is 8.51%. For `O=C(c1ccccc1)N1CCN(C2c3cccc4cccc(c34)C2NS(=O)(=O)c2ccccc2)CC1` (stereo not shown) the value was -2.44%. For `Cc1ccc(NC(=O)c2sc(N)nc2-c2ccc([N+](=O)[O-])cc2)cc1C` the value was 13.5%. For `COCCCNC(=O)COc1ccc2oc3c(c2c1)CCCC3` the value was 9.3%.

Take `O=C(N/N=C/c1cn(-c2cccs2)nc1-c1ccccc1)c1ccccc1O`: the “hERG current change (%, negative = inhibition) at 1uM” value is 19.6%. Under `Cn1c(CNC(=O)CNS(=O)(=O)c2ccc(Cl)cc2)cc(=O)n(C)c1=O` stands 23.8%; under `C=C1CCC2[C@](C)(CO)[C@H](O)CC[C@@]2(C)[C@@H]1/C=C/C1=CCOC1=O` (stereo partly shown), 9.77%; under `Cc1ccc(C(=O)CCC(=O)N2CCN(c3ccc(F)cc3)CC2)cc1`, 6.83%. For `CCOC(=O)c1ccc(NC(=S)N2CCN(C)CC2)cc1` the value was 15.8%; for `O=C(Nc1cc(Cl)cc(Cl)c1)C1CCCC1`, 16.5%; for `COc1ccc(CCN2C(=O)N(c3ccc(OC)cc3)C(=O)C2CC(=O)Nc2ccccc2)cc1` (stereo not shown), -8.53%. For the compound `Cc1ccccc1N(Cc1cc(=O)[nH]c2ccccc12)C(=O)CCl`, the “hERG current change (%, negative = inhibition) at 1uM” value is recorded as 17.6%. With `CCOC(=O)CSc1n[nH]c(NC(=O)c2ccc(F)cc2)n1`, the “hERG current change (%, negative = inhibition) at 1uM” value is -4.14%. For `CCc1nc2ccc(C(=O)N3CCN(c4ccc([N+](=O)[O-])cc4)CC3)cc2nc1CC` the value was -38.2%; for `CC(=NCC1CCCO1)c1c(O)n(-c2ccccc2)c(=O)[nH]c1=O` (stereo not shown), 3.99%. Under `O=C(NCc1ccc(F)cc1)c1cnc(-c2ccccn2)nc1C(F)(F)F` stands 1.81%. For the compound `CCOC(=O)N1CCN(C(=O)COC(=O)c2cccc(C)c2[N+](=O)[O-])CC1`, the “hERG current change (%, negative = inhibition) at 1uM” value is listed as 2.22%. Under `CCC(Cc1ccccc1)NC(=O)C1CCN(S(=O)(=O)c2c(C)noc2C)CC1` (stereo not shown) stands 11.7%; under `Cc1ccc(S(=O)(=O)N2CCN(CC(=O)N/N=C\c3ccc(Cl)c([N+](=O)[O-])c3)CC2)cc1`, 8.54%; under `Cc1cccc(-c2n[nH]c(=S)n2/N=C/C=C/c2ccco2)c1`, 12.8%.

In the case of `CCOC(=O)/C(N=Nc1ccc2c(c1)OCO2)=C(\C)O`, the “hERG current change (%, negative = inhibition) at 1uM” value was found to be 3.39%. Under `COc1cccc(C(=O)Nc2nnc(S(=O)(=O)N(C)Cc3ccccc3)s2)c1` stands 12.8%. Under `CSc1ccccc1NC(=O)CN(C)CC(=O)Nc1c(F)cccc1F.O=C(O)C(=O)O` stands 12.1%; under `CC(=O)Nc1ccc(S(=O)(=O)N2CCN(Cc3cccc([N+](=O)[O-])c3)CC2)cc1.O=C(O)C(=O)O`, 11.9%. For `CC(C)=CCC/C(C)=C/C(=O)O` the value was 13.4%.

As for `COCn1c(=O)c2c(nc(SC3=NCCS3)n2Cc2ccccc2C)n(COC)c1=O`, the “hERG current change (%, negative = inhibition) at 1uM” value came to 12.6%. Under `COc1ccc(CCC(C)NCc2ccccc2OC)cc1` (stereo not shown) stands 1.77%; under `C[C@H](NC(=O)c1ccccc1Cl)C(=O)OCCOc1cccc(Cl)c1`, -0.0512%. Under `CCN(CC)C(=O)Oc1ccc2c(=O)c(-c3ccc(OC)cc3)c(C)oc2c1` stands 3.69%; under `COc1ccc(/C=C2/C(=N)N3C(=NC2=O)Sc2cc(S(C)(=O)=O)ccc23)cc1OC`, 7.17%; under `Cc1cc(N2C(=O)C3CC=CCC3C2=O)no1` (stereo not shown), -1.11%. As to `O=C(Cn1c2ccc(F)cc2c2nc3n(c(=O)c21)CCS3)Nc1ccc(Cl)cc1F`, the “hERG current change (%, negative = inhibition) at 1uM” value is reported as -3.84%. Under `NS(=O)(=O)c1ccc(CNC(=O)c2sccc2-c2ccccc2)cc1` stands 5.85%; under `O=C(NNC(=O)C1CCC1)c1ccc(Cl)cc1`, 2.55%; under `CC(C)[C@H](NC(=O)N1CCn2c1nc1ccccc12)C(=O)NC1CCCCC1`, 7.57%. Take `Cc1ccc(CNC(=O)C(c2ccccc2)c2ccccc2)cc1`: the “hERG current change (%, negative = inhibition) at 1uM” value was -18%.
